{"source": "paper PMC12040169", "about": "(PLOS Biology, 2025)", "note": "The other results are listed elsewhere or left out."}
{"test_system": "T1, C. trachomatis L2/434/Bu expressing GFP (CTL2-GFP)", "T1 construct": "L2/434/Bu GFP intracellular growth in HeLa cells", "set-up": "species or system HeLa; C. trachomatis total inclusion area by high-content imaging, normalised to DMSO", "settings": "total inclusion area; 28.5 h, 10 µM; inhibitor", "outline": "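Bulk GFP and resorufin signals were read first. Wells were then fixed, stained with Hoechst and imaged to detect GFP inclusions and host nuclei. MICs followed the previously described calculation.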"}
{"smiles": "NS(=O)(=O)c1ccc(/N=C/c2cccc(OCc3ccccc3)c2)cc1", "note": "[CBK261594]", "% of control remaining": 79.6202}
{"smiles": "CCCC1CCN(Cc2ccn(Cc3ccc(S(C)(=O)=O)cc3)c2)CC1", "note": "[CBK144937]", "% of control remaining": 103.238}
{"smiles": "Cc1cc(C)c(C)c(OCC(=O)N(Cc2nc(-c3ccccc3)no2)C2CCCCC2)c1", "note": "[CBK268974]", "% of control remaining": 89.133}
{"smiles": "O=C(CN1C(=O)c2ccccc2C1=O)Nn1cnnc1", "note": "[CBK263789]", "% of control remaining": 114.822}
{"smiles": "CO[C@@]12CC[C@@H](OCC(=O)O)C[C@@H]1N(Cc1ccccc1C)CC2", "note": "[CBK307548]", "% of control remaining": 30.9319}
{"smiles": "COc1ncc(-c2nccnc2NCCc2ccncc2)c(OC)n1", "note": "[CBK038074]", "% of control remaining": 128.777}
{"smiles": "COc1ccc(Cc2c(C)nc3c(C(=O)NCCSC)cnn3c2C)cc1", "note": "[CBK162191]", "% of control remaining": 81.1859}
{"smiles": "CN(C)CCCNC(=O)c1cc(-c2ccc(Cl)cc2)on1", "note": "[CBK116557]", "% of control remaining": 100.293}
{"smiles": "N#Cc1cccnc1N1CCC(NC(=O)Cn2cccnc2=O)CC1", "note": "[CBK307275]", "% of control remaining": 62.7433}
{"smiles": "CCNS(=O)(=O)c1ccc(NC(=O)Nc2cc(C)ccc2OC)cc1", "note": "[CBK266850]", "% of control remaining": 94.6933}
{"smiles": "CCOC(=O)c1[nH]c2ccccc2c1NC(=O)c1ccc(OC(F)(F)F)cc1", "note": "[CBK160157]", "% of control remaining": 97.2057}
{"smiles": "Cc1nc(CNC(=O)NC2CCCN(c3ncccn3)C2)cs1", "note": "(stereo not drawn) [CBK305640]", "% of control remaining": 87.2356}
{"smiles": "c1ccc(-c2cc(CC3(NCc4cc5ccccc5o4)COC3)no2)nc1", "note": "[CBK289239]", "% of control remaining": 111.673}
{"smiles": "Cc1nc2c(c(=O)[nH]1)CN(CC1CCCCC1)CC2", "note": "[CBK283947]", "% of control remaining": 66.2052}
{"smiles": "Clc1ccc(COc2nccnc2N2CCN(Cc3ccc4c(c3)OCO4)CC2)cc1Cl", "note": "[CBK083078T]", "% of control remaining": 81.769}
{"smiles": "O=C(CO)N1CC2(CCN(Cc3cccc4cccnc34)CC2)c2ccccc21", "note": "[CBK137004]", "% of control remaining": 74.4044}
{"smiles": "COc1ncc(-c2cncc(N3CCN(c4ccccc4C#N)CC3)n2)c(OC)n1", "note": "[CBK037872]", "% of control remaining": 88.8821}
{"smiles": "NNC(=O)CCc1nc2cc(O)ccc2[nH]1", "note": "[CBK263633]", "% of control remaining": 99.9552}
{"smiles": "CCOCCCNC(=O)c1cnn2c(C)c(Cc3cccc(OC)c3)c(C)nc12", "note": "[CBK162056]", "% of control remaining": 94.391}
{"smiles": "O=C1COc2ccccc2C/C=C/CC2(CCN(C(=O)c3cncc(O)c3)CC2)C(=O)NCCN1", "note": "[CBK291989]", "% of control remaining": 128.78}
{"smiles": "COc1cccc(C(NC(=O)c2cccc(Cn3ccnc3C)c2)c2ccccc2)c1", "note": "(stereo not drawn) [CBK285620]", "% of control remaining": 92.3862}
{"smiles": "NC(=O)C1(Cc2ccc(-c3ccccc3)cc2)CCN(C(=O)Cc2ccccc2)CC1", "note": "[CBK285771]", "% of control remaining": 76.7203}
{"smiles": "CCCc1cc(C(=O)NC2(CN3CCCC3)CCCCC2)[nH]n1", "note": "[CBK282464]", "% of control remaining": 110.37}
{"smiles": "O=C(c1cc(F)c(F)cc1F)N1CCC2(CCCN(CCN3CCOCC3)C2)C1", "note": "(stereo not drawn) [CBK132015]", "% of control remaining": 102.212}
{"smiles": "CC(=O)NCc1cccc(-c2cc(C(=O)O)cnc2-c2ccc(Cl)cc2)c1", "note": "[CBK156194]", "% of control remaining": 87.0451}
{"smiles": "O=[N+]([O-])c1ccc(N2CCN(S(=O)(=O)c3ccc4ccccc4c3)CC2)cc1NC1CC1", "note": "[CBK264361]", "% of control remaining": 112.686}
{"smiles": "O=C(CSCc1ccccc1)Nc1ccc(O)cc1C(=O)O", "note": "[CBK126817]", "% of control remaining": 93.4073}
{"smiles": "O=C(NCCCO)C1CCCN(S(=O)(=O)c2ccc3ccccc3c2)C1", "note": "(stereo not drawn) [CBK270141]", "% of control remaining": 77.1318}
{"smiles": "O=C(NCc1ccc(-c2csnn2)cc1)c1cccc(C(F)(F)F)c1", "note": "[CBK149293]", "% of control remaining": 98.0167}
{"smiles": "CC(C)CNC(=O)c1cc([C@H]2CC[C@H](CNC(=O)Cn3cccn3)CC2)nc2ccccc12", "note": "[CBK285860]", "% of control remaining": 105.278}
{"smiles": "Cc1cc(CNC(=O)CCc2c(C)nc3nc(N)nn3c2C)ccc1F", "note": "[CBK306212]", "% of control remaining": 113.072}
{"smiles": "Cc1nc2ccccn2c1-c1csc(N)n1", "note": "[CBK288628B]", "% of control remaining": 104.963}
{"smiles": "c1ccc(CC(Cc2nc3ccccc3[nH]2)c2nc3ccccc3[nH]2)cc1", "note": "(stereo not drawn) [CBK150452]", "% of control remaining": 89.7112}
{"smiles": "O=S(=O)(c1ccccc1)C1CC1", "note": "[CBK023184]", "% of control remaining": 87.9279}
{"smiles": "CCOC(=O)c1cnn(C2CCCN(Cc3cccs3)C2)c1", "note": "(stereo not drawn) [CBK305121]", "% of control remaining": 91.0788}
{"smiles": "Cn1nccc1C(=O)N[C@H]1C2CCCCC2[C@@H]1c1ccccc1", "note": "(stereo partly drawn) [CBK285127]", "% of control remaining": 105.452}
{"smiles": "CC(C)C[C@@H](C(=O)N1CCC(C(=O)O)CC1)n1c(=O)[nH]c2ccccc2c1=O", "note": "[CBK286762]", "% of control remaining": 76.4224}
{"smiles": "CCS(=O)(=O)Nc1ccc(C2=NN(S(=O)(=O)c3ccc(F)cc3)C(c3ccccc3C)C2)cc1", "note": "(stereo not drawn) [CBK269161]", "% of control remaining": 102.98}
{"smiles": "Cc1cccc(-c2csc3c(=O)[nH]c(N4CCC(C(=O)NCCN(C)C)CC4)nc23)c1", "note": "[CBK215633]", "% of control remaining": 124.137}
